Here are results for ten variants from the supplement of paper PMC12217912.

B1: TEV protease; numbered along this chain (parent)
chain: MGESLFKGPRDYNPISSSICHLTNESDGHTTSLYGIGFGPFIITNKHLFRRNNGTLVVQSLHGVFKVKDTTTLQQHLVDGRDMIIIRMPKDFPPFPQKLKFREPQREERICLVTTNFQTKSMSSMVSDTSCTFPSGDGIFWKHWIQTKDGQCGSPLVSTRDGFIVGIHSASNFTNTNNYFTSVPKNFMELLTNQEAQQWVSGWRLNADSVLWGGHKVFMVKPEEPFQPVKEATQL

The other results are listed elsewhere or left out. Sequences were assembled here from the parent chain. Inactive controls read about 0.05.

The variants in this assay derive from B1. The assay can be described thus: raw area under fraction-flipped curve 0-4 h after induction (AUC4h, not background-subtracted), DNA-recorder readout of cleavage of the substrate (dimensionless); higher = more cleavage of the substrate by the protease variant. To be noted: temperature: 34 °C; time window: 0-4 h after rhamnose induction. The procedure:
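In vivo DNA recorder in E. coli TOP10(DE3) ΔrhaA at 34 °C. Each TEVp single-site mutant (parent TEVp 0) is paired with a single-site variant of the 7-mer TEVs (canonical ENLYFQ|S). The substrate sits between flexible linkers in a Bxb1-sfGFP-TEVs-SsrA fusion, so cleavage stabilises Bxb1 and speeds flipping of a recombination array, read by NGS. The value is the raw area under the fraction-flipped curve over 0-4 h after rhamnose induction (AUC4h), with ≥20 reads per time point. It is not background-subtracted; inactive controls average about 0.047.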
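Also: Bxb1 expression induced with 0.2% (w/v) L-rhamnose at OD600 near 0.5, cultures sampled hourly, flipped fraction per protease–substrate barcode pair counted by paired-end Illumina sequencing.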

For the variant MGESLFKGPRDYNPISSSICHLTNESDGHTTSLYGIGFGPFIITNKHLFRRNNGTLVVQSLHGVFKVKDTTTLQQHLVDGRDMIIIRMPKDFPPFPQKLKFREPQREERICLVTANFQTKSMSSMVSDTSCTFPSGDGIFWKHWIQTKDGQCGSPLVSTRDGFIVGIHSASNFTNTNNYFTSVPKNFMELLTNQEAQQWVSGWRLNADSVLWGGHKVFMVKPEEPFQPVKEATQL [T115A], the “area with substrate ENAYFQS” value was 0.0648, the “area with substrate ENDYFQS” value turned out to be 0.0575, the “area with substrate ENEYFQS” value is 0.0696 and the “area with substrate ENGYFQS” value came to 0.0581. Also, the “area with substrate ENHYFQS” value was 0.0445 and the “area with substrate ENTYFQS” value was 0.0597.
In the case of MGESLFKGPRDYNPISSSICHLTNESDGHTTSLYGIGFGPFIITNKHLFRRNNGTLVVQSLHGVFKVKDTTTLQQHLVDGRDMIIIRMPKDFPPFPQKLKFREPQREERICLVTLNFQTKSMSSMVSDTSCTFPSGDGIFWKHWIQTKDGQCGSPLVSTRDGFIVGIHSASNFTNTNNYFTSVPKNFMELLTNQEAQQWVSGWRLNADSVLWGGHKVFMVKPEEPFQPVKEATQL [T115L], the “area with substrate ENAYFQS” value was determined as 0.0552, the “area with substrate ENCYFQS” value was found to be 0.0653, the “area with substrate ENDYFQS” value was 0.0582 and the “area with substrate ENEYFQS” value was 0.0682. For the same variant, the “area with substrate ENGYFQS” value amounted to 0.0547, the “area with substrate ENHYFQS” value worked out at 0.0635, the “area with substrate ENIYFQS” value worked out at 0.113 and the “area with substrate ENNYFQS” value was 0.0628. The “area with substrate ENQYFQS” value was 0.0639, the “area with substrate ENRYFQS” value came to 0.0616, the “area with substrate ENSYFQS” value stood at 0.0494 and the “area with substrate ENVYFQS” value was 0.0764. Besides, the “area with substrate ENWYFQS” value stood at 0.0583.
Regarding MGESLFKGPRDYNPISSSICHLTNESDGHTTSLYGIGFGPFIITNKHLFRRNNGTLVVQSLHGVFKVKDTTTLQQHLVDGRDMIIIRMPKDFPPFPQKLKFREPQYEERICLVTTNFQTKSMSSMVSDTSCTFPSGDGIFWKHWIQTKDGQCGSPLVSTRDGFIVGIHSASNFTNTNNYFTSVPKNFMELLTNQEAQQWVSGWRLNADSVLWGGHKVFMVKPEEPFQPVKEATQL [R106Y], the “area with substrate ENAYFQS” value was 0.0662, the “area with substrate ENCYFQS” value is 0.0724, the “area with substrate ENDYFQS” value was 0.0585 and the “area with substrate ENEYFQS” value came to 0.0816. Further, the “area with substrate ENFYFQS” value came to 0.0634, the “area with substrate ENGYFQS” value was found to be 0.071, the “area with substrate ENHYFQS” value was found to be 0.0483 and the “area with substrate ENNYFQS” value is 0.0597. Also, the “area with substrate ENPYFQS” value was 0.0678, the “area with substrate ENQYFQS” value stood at 0.0592, the “area with substrate ENRYFQS” value was found to be 0.0535 and the “area with substrate ENSYFQS” value came out at 0.0559. Besides, the “area with substrate ENTYFQS” value was 0.0694, the “area with substrate ENVYFQS” value turned out to be 0.089, the “area with substrate ENWYFQS” value amounted to 0.0496 and the “area with substrate ENYYFQS” value is 0.0577.
For the variant MGESLFKGPRDYNPISSSICHLTNESDGHTTSLYGIGFGPFIITNKHLFRRNNGTLVVQSLHGVFKVKDTTTLQQHLVDGRDMIIIRMPKDFPPFPQDLKFREPQREERICLVTTNFQTKSMSSMVSDTSCTFPSGDGIFWKHWIQTKDGQCGSPLVSTRDGFIVGIHSASNFTNTNNYFTSVPKNFMELLTNQEAQQWVSGWRLNADSVLWGGHKVFMVKPEEPFQPVKEATQL [K98D], the “area with substrate ENAYFQS” value turned out to be 0.0685, the “area with substrate ENCYFQS” value was found to be 0.0629, the “area with substrate ENDYFQS” value amounted to 0.0622 and the “area with substrate ENEYFQS” value amounted to 0.0639. Moreover, the “area with substrate ENGYFQS” value amounted to 0.0559, the “area with substrate ENHYFQS” value is 0.0479, the “area with substrate ENQYFQS” value amounted to 0.0609 and the “area with substrate ENSYFQS” value was found to be 0.062. Further, the “area with substrate ENTYFQS” value came to 0.0837 and the “area with substrate ENVYFQS” value was 0.0829.
In the case of MGESLFKGPRDYNPISSSICHLTNESDGHTTSLYGIGFGPFIITNKHLFRRNNGTLVVQSLHGVFKVKDTTTLQQHLVDGRDMIIIRMPKDFPPFPQKLKFREPQREERLCLVTTNFQTKSMSSMVSDTSCTFPSGDGIFWKHWIQTKDGQCGSPLVSTRDGFIVGIHSASNFTNTNNYFTSVPKNFMELLTNQEAQQWVSGWRLNADSVLWGGHKVFMVKPEEPFQPVKEATQL [I110L], the “area with substrate ENAYFQS” value worked out at 0.0627, the “area with substrate ENCYFQS” value was 0.0668, the “area with substrate ENDYFQS” value is 0.0375 and the “area with substrate ENFYFQS” value amounted to 0.0446. In addition, the “area with substrate ENGYFQS” value worked out at 0.0525, the “area with substrate ENHYFQS” value was 0.0509, the “area with substrate ENIYFQS” value is 0.124 and the “area with substrate ENKYFQS” value was 0.0654. Also, the “area with substrate ENNYFQS” value was 0.0707, the “area with substrate ENPYFQS” value is 0.0062, the “area with substrate ENQYFQS” value amounted to 0.0533 and the “area with substrate ENRYFQS” value was determined as 0.072. Besides, the “area with substrate ENSYFQS” value came out at 0.0637, the “area with substrate ENTYFQS” value turned out to be 0.054 and the “area with substrate ENVYFQS” value is 0.08.
For the variant MGESLFKGPRDYNPISSSICHLTNESDGHTTSLYGIGFGPFIITNKHLFRRNNGTLVVQSLHGVFKVKDTTTLQQHLVDGRDMIIIRMPKDFPPFPQKLKFREPQREERYCLVTTNFQTKSMSSMVSDTSCTFPSGDGIFWKHWIQTKDGQCGSPLVSTRDGFIVGIHSASNFTNTNNYFTSVPKNFMELLTNQEAQQWVSGWRLNADSVLWGGHKVFMVKPEEPFQPVKEATQL [I110Y], the “area with substrate ENAYFQS” value amounted to 0.0361, the “area with substrate ENDYFQS” value came out at 0.067, the “area with substrate ENGYFQS” value was found to be 0.0464 and the “area with substrate ENKYFQS” value came out at 0.0766. In addition, the “area with substrate ENQYFQS” value was found to be 0.0372 and the “area with substrate ENVYFQS” value is 0.0622.
Regarding MGESLFKGPRDYNPISSSICHLTNESDGHTTSLYGIGFGPFIITNKHLFRRNNGTLVVQSLHGVFKVKDTTTLQQHLVDGRDMIIIRMPKDFPPFPQKLKFREPQRPERICLVTTNFQTKSMSSMVSDTSCTFPSGDGIFWKHWIQTKDGQCGSPLVSTRDGFIVGIHSASNFTNTNNYFTSVPKNFMELLTNQEAQQWVSGWRLNADSVLWGGHKVFMVKPEEPFQPVKEATQL [E107P], the “area with substrate ENAYFQS” value is 0.0804, the “area with substrate ENEYFQS” value was found to be 0.0575, the “area with substrate ENKYFQS” value came out at 0.0464 and the “area with substrate ENNYFQS” value turned out to be 0.0711. For the same variant, the “area with substrate ENPYFQS” value was 0.068, the “area with substrate ENQYFQS” value was determined as 0.0586, the “area with substrate ENRYFQS” value is 0.0438 and the “area with substrate ENSYFQS” value came out at 0.116. The “area with substrate ENVYFQS” value came to 0.0727, the “area with substrate ENWYFQS” value was determined as 0.0592 and the “area with substrate ENYYFQS” value turned out to be 0.0705.
Take MGESLFKGPRDYNPISSSICHLTNESDGHTTSLYGIGFGPFIITNKHLFRRNNGTLVVQSLHGVFKVKDTTTLQQHLVDGRDMIIIRMPKDFPPFPQKLKFREPQRRERICLVTTNFQTKSMSSMVSDTSCTFPSGDGIFWKHWIQTKDGQCGSPLVSTRDGFIVGIHSASNFTNTNNYFTSVPKNFMELLTNQEAQQWVSGWRLNADSVLWGGHKVFMVKPEEPFQPVKEATQL [E107R]: the “area with substrate ENAYFQS” value was found to be 0.0726, the “area with substrate ENCYFQS” value was 0.0744, the “area with substrate ENDYFQS” value stood at 0.0508 and the “area with substrate ENEYFQS” value came out at 0.0499. The “area with substrate ENFYFQS” value was 0.0557, the “area with substrate ENHYFQS” value was 0.0741, the “area with substrate ENIYFQS” value was 0.0841 and the “area with substrate ENMYFQS” value was 0.0755. Besides, the “area with substrate ENNYFQS” value was 0.0516, the “area with substrate ENPYFQS” value is 0.0575, the “area with substrate ENQYFQS” value came out at 0.0741 and the “area with substrate ENSYFQS” value is 0.0674. For the same variant, the “area with substrate ENTYFQS” value came out at 0.0778, the “area with substrate ENVYFQS” value was 0.0646 and the “area with substrate ENYYFQS” value was found to be 0.0337.
MGESLFKGPRDYNPISSSICHLTNESDGHTTSLYGIGFGPFIITNKHLFRRNNGTLVVQSLHGVFKVKDTTTLQQHLVDGRDMIIIRMPKDFPPFPQKGKFREPQREERICLVTTNFQTKSMSSMVSDTSCTFPSGDGIFWKHWIQTKDGQCGSPLVSTRDGFIVGIHSASNFTNTNNYFTSVPKNFMELLTNQEAQQWVSGWRLNADSVLWGGHKVFMVKPEEPFQPVKEATQL [L99G]: the “area with substrate ENAYFQS” value was determined as 0.0653, the “area with substrate ENEYFQS” value turned out to be 0.0608, the “area with substrate ENFYFQS” value was found to be 0.0719 and the “area with substrate ENPYFQS” value came to 0.0583. The “area with substrate ENRYFQS” value amounted to 0.0535, the “area with substrate ENSYFQS” value is 0.0538, the “area with substrate ENTYFQS” value turned out to be 0.0596 and the “area with substrate ENVYFQS” value stood at 0.0629.
Turning to MGESLFKGPRDYNPISSSICHLTNESDGHTTSLYGIGFGPFIITNKHLFRRNNGTLVVQSLHGVFKVKDTTTLQQHLVDGRDMIIIRMPKDFPPFPQKFKFREPQREERICLVTTNFQTKSMSSMVSDTSCTFPSGDGIFWKHWIQTKDGQCGSPLVSTRDGFIVGIHSASNFTNTNNYFTSVPKNFMELLTNQEAQQWVSGWRLNADSVLWGGHKVFMVKPEEPFQPVKEATQL [L99F], the “area with substrate ENAYFQS” value came to 0.0721, the “area with substrate ENCYFQS” value turned out to be 0.0582, the “area with substrate ENHYFQS” value worked out at 0.0594 and the “area with substrate ENKYFQS” value turned out to be 0.0552. In addition, the “area with substrate ENMYFQS” value came out at 0.0844, the “area with substrate ENNYFQS” value was 0.0541, the “area with substrate ENQYFQS” value is 0.0574 and the “area with substrate ENSYFQS” value turned out to be 0.0552. Also, the “area with substrate ENVYFQS” value was found to be 0.0883.
